# Publication PMC4336329 (PLoS ONE, 2015)
# The campaign covered roughly 310,000 compounds. About 2,200 (0.71%) showed an effect of 50% or more. The effect is printed as a negative number. The list shows a part of the results.
# Biological target: human ether-à-go-go-related gene (hERG) potassium channel (human, UniProt Q12809)
# Experiment: primary screen, population patch clamp on CHO cells stably expressing hERG
# Experimental: Briefly, Chinese hamster ovary (CHO) cells stably expressing the hERG channel were dislodged from tissue culture flasks and dispensed into PPC plates. […] During the recording, background leak currents were estimated by a 100 ms step to -80 mV from an initial holding potential of -70 mV and subtracted from the subsequent current measurement. The campaign was conducted in two phases using slight differences in recording protocol. In the first phase, the initial voltage pulse used a 100 ms step to -30 mV from a holding potential of -70 mV, a 2 s conditioning step to +25 mV, and a 2 s test step to -30 mV. During the second phase of the screen, the potential during the conditioning step was raised to +45 mV. In both phases of the campaign, a secondary voltage pulse was applied using the same parameters as the second phase initial pulse. The initial and secondary pulses were applied in the absence of compound, and upon application of 1 μM and 10 μM test concentrations. Small molecule effects on hERG current density were quantified by […].
# Chain of human ether-à-go-go-related gene (hERG) potassium channel (Q12809 whole entry, looked up): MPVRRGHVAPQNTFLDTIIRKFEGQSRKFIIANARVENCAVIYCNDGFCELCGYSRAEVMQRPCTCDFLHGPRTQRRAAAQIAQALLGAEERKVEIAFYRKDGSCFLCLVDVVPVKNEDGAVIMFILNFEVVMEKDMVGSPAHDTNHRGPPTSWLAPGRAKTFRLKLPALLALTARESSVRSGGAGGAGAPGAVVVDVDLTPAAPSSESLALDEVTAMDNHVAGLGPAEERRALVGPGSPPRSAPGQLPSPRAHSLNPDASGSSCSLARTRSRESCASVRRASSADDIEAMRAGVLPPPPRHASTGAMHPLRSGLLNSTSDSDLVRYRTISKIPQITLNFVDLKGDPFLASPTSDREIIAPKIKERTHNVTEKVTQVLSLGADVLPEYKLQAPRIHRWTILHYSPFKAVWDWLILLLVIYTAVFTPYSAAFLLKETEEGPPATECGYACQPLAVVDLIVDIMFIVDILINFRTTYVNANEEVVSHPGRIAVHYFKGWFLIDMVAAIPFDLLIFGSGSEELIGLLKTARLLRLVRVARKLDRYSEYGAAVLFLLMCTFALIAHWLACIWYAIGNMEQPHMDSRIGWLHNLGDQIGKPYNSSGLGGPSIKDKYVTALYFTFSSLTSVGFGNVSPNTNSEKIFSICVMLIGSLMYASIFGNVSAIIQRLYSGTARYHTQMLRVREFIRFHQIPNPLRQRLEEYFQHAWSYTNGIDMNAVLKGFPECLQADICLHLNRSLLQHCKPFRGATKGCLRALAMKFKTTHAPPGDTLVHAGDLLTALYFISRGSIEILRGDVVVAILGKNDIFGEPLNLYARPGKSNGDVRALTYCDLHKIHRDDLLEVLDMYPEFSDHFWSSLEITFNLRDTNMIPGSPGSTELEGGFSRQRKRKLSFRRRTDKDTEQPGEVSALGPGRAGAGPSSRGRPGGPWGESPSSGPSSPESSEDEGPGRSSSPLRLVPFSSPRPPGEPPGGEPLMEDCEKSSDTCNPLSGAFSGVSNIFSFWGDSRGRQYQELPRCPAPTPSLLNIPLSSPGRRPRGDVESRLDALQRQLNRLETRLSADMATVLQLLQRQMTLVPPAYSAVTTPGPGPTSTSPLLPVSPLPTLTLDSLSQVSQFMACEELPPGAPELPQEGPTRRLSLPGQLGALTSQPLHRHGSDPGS
row,Structure (SMILES),"hERG current change (%, negative = inhibition) at 1uM"
1,COc1ccc(N2CCN(C(=O)c3cc([N+](=O)[O-])ccc3N3CCN(CCO)CC3)CC2)cc1,-1.2%
2,CC(=O)c1c(OC(=O)c2ccccc2)c2ccccc2n1C,2.42%
3,COc1ccc(CC(=O)N(C)CC(=O)Nc2ccccc2C(F)(F)F)cc1S(=O)(=O)N1CCOCC1,10.2%
4,O=C(Nc1ccccc1)C1=C[C@@H](C2CCCCC2)C[C@@H](OCCCCO)O1,10.1%
5,O=C(COc1ccc2ccccc2c1Br)Nc1cccnc1,18.9%
6,Cc1ccc(C)c(NS(=O)(=O)c2cc(C(=O)NCc3ccncc3)ccc2C)c1,-5.08%
7,COc1cccc(CNC(=O)CCS(=O)(=O)c2ccc3c(c2)NC(=O)C(C)S3)c1 (stereo not drawn),18.2%
8,Cc1cc(C)cc(NS(=O)(=O)c2cc(Br)cnc2N)c1,17.4%
9,CC(Sc1nnc(Cc2ccccc2)o1)C(=O)Nc1ccccc1[N+](=O)[O-] (stereo not drawn),10.8%
10,CCOc1ccc(CN2CCN(Cc3ccc4cc(F)ccc4n3)CC2CCO)cc1 (stereo not drawn),-79.3%
11,NC(=O)c1snnc1-c1ccccc1,10.9%
12,Cc1ccc2c(c1)C(c1ccccc1)CC(=O)O2 (stereo not drawn),7.8%
13,NS(=O)(=O)c1cc2c(cc1Cl)NC(Cc1ccccc1)NS2(=O)=O (stereo not drawn),7.31%
14,COc1ccc(COc2ccccc2C(=O)Nc2ccccn2)cc1[N+](=O)[O-],0.65%
15,CC(C)CSc1nc2c(c(=O)[nH]c(=O)n2C)n1CCc1ccccc1,14.1%
16,COC(=O)C(=O)Nc1nnc(COc2ccccc2)s1,9.5%
17,CCC(=O)c1cn(/C(=C\C(=O)OC(C)(C)C)CCC(OC)OC)cc1CC,8.48%
18,Cc1ccc(S(=O)(=O)N2CCCCC2)cc1C(=O)N(C)CC(=O)Nc1cccc(F)c1,-37.5%
19,COC(=O)[C@@H](NC(=O)c1ccccc1)[C@@H](C)O,5.85%
20,CN(C)c1ccc(N=Nc2cccc3ccoc23)cc1,16.8%
21,O=C(NCCC1CCCCN1S(=O)(=O)c1ccccc1)C(=O)Nc1ccccc1 (stereo not drawn),10.6%

row,Structure (SMILES),"hERG current change (%, negative = inhibition) at 1uM"
1,Cc1cccc(C)c1-n1nnnc1-c1cnccc1C(F)(F)F,12.2%
2,CCn1cc(C(=O)N[C@H](C(=O)NCCCO)C(C)C)c(=O)c2cc3c(cc21)OCO3,16.2%
3,COc1ccccc1-n1c(CNC(=O)COc2ccccc2)n[nH]c1=S,9.94%
4,COc1cccc(CNC(=O)Cc2ccc(Br)cc2)c1,13.4%
5,O=C(C1CCOCC1)N1CCCC(N2CCN(c3cccc(Cl)c3)CC2)C1 (stereo not drawn),1.19%
6,CC(OC(=O)c1ccc(S(=O)(=O)N(C)C)cc1)C(=O)Nc1ccc(Cl)cn1 (stereo not drawn),6.72%
7,CCCn1c(O)c(N=NC(=O)c2cccnc2)c2cc(Br)ccc21,9.2%
8,Cc1cc(C)cc(NC(=S)/C(=C(\[O-])c2ccc(Cl)cc2Cl)[n+]2ccc(C(C)(C)C)cc2)c1,9.66%
9,Br.O=C1SC(SC(=Nc2ccccc2)Nc2ccccc2)C(=O)N1c1ccccc1 (stereo not drawn),15.1%
10,CCOC(=O)N1CCN(S(=O)(=O)c2ccc(C(=O)Nc3sc4c(c3C(N)=O)CCN(CC)C4)cc2)CC1,17.3%
11,CN(C)C(=O)COc1ccc2ccc(=O)oc2c1,3.48%
12,COC(=O)C(O)(c1ccc(N(C)C(=O)COc2ccccc2)cc1)C(F)(F)F (stereo not drawn),2.34%
13,Cc1nc(N2CCN(S(=O)(=O)c3ccc(F)cc3)CC2)c2c(-c3cccs3)csc2n1,8.75%
14,COC(=O)C1(C)NC(c2ccco2)C2C(=O)N(c3ccc(C)cc3)C(=O)C21 (stereo not drawn),9.88%
15,COc1ccc(-c2[nH]ncc2CN2CCC(c3ccncc3)CC2)cc1F,-51.4%
16,O=C(O)COc1ccccc1/C=N/NC(=O)CSc1nnc(SCc2ccc(Cl)cc2)s1,12.1%
17,CCCCCCC1CC(=O)NC(=O)N1 (stereo not drawn),12.6%
18,CCCOc1ccc(N2C(=O)CC(N(CCc3ccc(S(N)(=O)=O)cc3)C(C)=O)C2=O)cc1 (stereo not drawn),21.6%
19,O=C(CCc1nnc(CCCCc2ccccc2)o1)N1CCCCC1CCO (stereo not drawn),10%
20,Cc1cc2oc(=O)cc(CN3CCN(Cc4ccc5c(c4)OCO5)CC3)c2cc1C,0.724%
21,Cc1ccc(CN2C(=O)CCC2C(=O)NC2CC2)cc1 (stereo not drawn),12.7%
